# The whole screen tested about 190,000 compounds, of which about 520 (0.27%) were called active. Inconclusive means that the source gave no clear call. Such entries were picked first, then a sample of the others.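 How the source made its calls: active means GTP binding activity at least 20 points away from the 100% control level, either lower or higher; inconclusive means compound flagged as likely green fluorescent, judged across all proteins; inactive means the rest.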
# Target: Ras-related C3 botulinum toxin substrate 1 (Homo sapiens) (UniProt P63000)
# Test: wildtype Rac1 GTP binding modulators, primary screen, biochemical, GST-Rac1 beads, flow cytometry, multiplex (AID 757)
# Conditions: fluorescent GTP binding, at 10 µM, actives lie on both sides, 0 = cold GTP competed, 100 = untreated
row,SMILES,GTP binding activity (% of control)
1,OC1(c2ccc3c(c2)OCO3)CCN(Cc2ccccn2)CC1,inconclusive: 105%
2,O=C(Cc1ccccc1)Nc1nc2ccccc2[nH]1,inconclusive: 106%
3,Cc1ccc(Nc2nc(-c3c(C)nc4ncccn34)cs2)cc1,inconclusive: 76%
4,Cc1nc2c(C(=O)NCc3ccccc3)c[nH]n2c(=O)c1Cl,inconclusive: 98%
5,COC(=O)C1=C(C)OC(N)=C(C#N)C1c1c(C)nn(-c2ccccc2)c1Cl (stereo not drawn),inactive: 104%
6,Cn1c(=O)c2c(nc(N/N=C/c3ccco3)n2C)n(C)c1=O,active: 74%
7,COc1cccc(C2CC(c3cccs3)=NN2C(=O)CSc2nc3ccccc3o2)c1OC (stereo not drawn),inconclusive: 99%
8,NS(=O)(=O)c1ccc(-c2ccc(/C=C3\C(=O)Nc4cc(Cl)ccc43)o2)cc1,active: 68%
9,CC(C)(C)OC(=O)NCCCC[C@H](NC(=O)c1nc[nH]c1C(=O)NC(c1ccccc1)c1ccccc1)C(=O)OC(C)(C)C,inactive: 97%
10,CC(=O)c1cnc2n(c1=O)CCS2,inactive: 102%
11,COc1ccc(C(=O)N2CCN(Cc3ccc4c(c3)OCO4)CC2)cc1[N+](=O)[O-],inactive: 94%
12,COc1cc2[nH]c3c(Cl)ncnc3c2cc1OC,inconclusive: 94%
13,NC(=O)C1CCN(CCC(=O)Nc2ccc3c(c2)CCC3)CC1,inconclusive: 104%
14,CCOC(=O)N1CCN(C(=O)c2nn(-c3cc(OC)cc(OC)c3)c(=O)c3ccccc23)CC1,inconclusive: 104%
15,CN(C)/C=N/c1c(C#N)cnn1-c1nc2ccccc2s1,inactive: 99%
16,CCc1ccccc1NC(=O)N[C@@H](C)C(=O)O,inconclusive: 107%
17,O=C(CSc1ccsc1[N+](=O)[O-])N1CCCCC1,inactive: 102%
18,CCn1nc(C)c(/C=N/NC(=O)Cc2ccc(Cl)cc2)c1C,inconclusive: 105%
19,O=C(N/C(=C/c1cccnc1)C(=O)N1CCOCC1)c1ccccc1,inconclusive: 104%
20,CCCS(=O)(=O)c1ccc(COC(=O)c2cccc(NC(=O)C(C)C)c2)cc1,inactive: 96%
21,CN(C(=O)COC(=O)c1ccccc1SCC(=O)NC1CCCCCCC1)C1CCS(=O)(=O)C1 (stereo not drawn),inconclusive: 101%
22,Cc1c(C(=O)N/N=C/c2ccc(-c3ccccc3[N+](=O)[O-])o2)sc(N)c1C#N,inconclusive: 71%
23,Cc1cc(/C=N/NC(=O)C(=O)NCc2ccccn2)c(C)n1-c1ccccc1,inactive: 98%
24,O=C(CCCCCn1c(=S)[nH]c2ccc(N3CCOCC3)cc2c1=O)NCc1cccc(Cl)c1,inconclusive: 89%

row,SMILES,GTP binding activity (% of control)
1,O=C(Cn1c(NCCO)nc2ccccc21)NCCc1ccccc1,inconclusive: 101%
2,CN(C)S(=O)(=O)c1ccc(C(=O)NNc2nc(-c3ccccc3)c3cc(Br)ccc3n2)cc1,active: 78%
3,C/C(CC(=O)Nc1cccc(Cl)c1Cl)=N\NC(=O)c1ccccc1N,inconclusive: 90%
4,C=CCNC(=S)N/N=C/c1ccc(C)cc1C,inconclusive: 93%
5,CCOc1ccc(NC(=O)COC(=O)c2cccnc2)cc1,inconclusive: 102%
6,N#Cc1cnc(SCC(=O)NNC(=O)COc2cccc3ccccc23)nc1N,inconclusive: 99%
7,Cc1ccc(CN(CC(=O)NC(C)(C)C)C(=O)CNC(=O)c2cccs2)cc1,inconclusive: 92%
8,CCCCc1ccc(NC(=S)N2CCCC(C)C2)cc1 (stereo not drawn),inactive: 97%
9,CCN(CC)S(=O)(=O)c1ccc2c(c1)nc(CCC(=O)Nc1cccc(C(F)(F)F)c1)n2CC,inconclusive: 102%
10,COc1cc(Cl)c(C)cc1NC(=O)c1ccc2c(SCC(=O)O)c3c(nc2c1)CCCC3,inconclusive: 92%
11,CC(C)Nc1nc(NC(C)C)nc(Nn2cnnc2)n1,inconclusive: 93%
12,COc1ccc([N+](=O)[O-])cc1NC(=O)Cc1ccc(Cl)cc1,inactive: 100%
13,O=C(NNC1CC(=O)N(c2cccc(Cl)c2)C1=O)c1cccs1 (stereo not drawn),inconclusive: 104%
14,Cc1csc(NC(=O)C2CCCCC2C(=O)O)n1 (stereo not drawn),inactive: 102%
15,CCOC(=O)CSc1nc2sc(C)c(C)c2c(=O)n1C,inconclusive: 102%
16,O=C(O)CCCCCCCCCC(=O)c1cccs1,inactive: 94%
17,O=C(CSc1ccc2nnc(-c3ccccn3)n2n1)Nc1nccs1,active: 54%
18,COc1cccc(CN(C)CC(=O)NCc2ccccc2Cl)c1OC,inactive: 98%
19,CC(C)(C)OC(=O)N[C@@H](Cc1ccccc1)c1nnc(S(=O)(=O)Cc2cccc(F)c2)o1,inactive: 101%
20,COc1ccc(CC(=O)NNC(=O)c2cnccn2)cc1,inconclusive: 104%
21,COc1cccc(-c2c(C#N)c(N)nc3c2c(=O)nc2sccn23)c1,inconclusive: 95%
22,C=CCNC(=O)c1cc2c(=O)n3cc(C)ccc3nc2nc1NCC1CCCO1 (stereo not drawn),inactive: 82%
23,COC(=O)CCSCC(=O)Nc1cc(C)on1,inconclusive: 108%
24,Cn1c(Cn2c(=O)sc3ccccc32)nnc1SCC(=O)NCCc1ccccc1,inactive: 103%

row,SMILES,GTP binding activity (% of control)
1,Cn1c2ccc(Cl)cc2c2nc3ccccc3nc21,inconclusive: 84%
2,O=C(COC(=O)c1cccs1)NCC1CCCCC1,inactive: 100%
3,CCn1cc(C(=O)O)c(=O)c2cc(F)c(N/N=C/c3ccccc3[N+](=O)[O-])cc21,active: 64%
4,CCc1nn2cc(C(=O)c3cc(Cl)ccc3O)cnc2c1-c1ccc(F)cc1,inconclusive: 84%
5,Fc1cccc(Cl)c1Cn1nnc(-c2ccc3c(c2)OCO3)n1,inconclusive: 97%
6,Cc1cc(NC(=O)CCC2CCCCC2)no1,inconclusive: 106%
7,CCC(C(=O)NC1CCCC1)N(C(=O)Cn1nnc(-c2ccc(C)o2)n1)c1cnc2ccccc2c1 (stereo not drawn),active: 125% [activator]
8,Cc1ccc(S(=O)(=O)Oc2ccc(/C=C(/NC(=O)c3ccccc3)C(=O)O)cc2)cc1,inconclusive: 89%
9,Cc1c(Cl)c([N+](=O)[O-])nn1CC(=O)N1CCN(Cc2ccccc2)CC1,inactive: 99%
10,C=CCOc1ccc(C2C(C(=O)c3ccco3)=C(O)C(=O)N2c2nnc(C)s2)cc1 (stereo not drawn),inactive: 95%
11,CCCOc1ccc(CCc2n[nH]c(=S)n2-c2ccccc2)cc1,inconclusive: 97%
12,COCCNC(=O)C(=O)c1cc(C)n(-c2ccc([N+](=O)[O-])cc2)c1C,inconclusive: 94%
13,COc1ccc(/C=N/NC(=O)C(N)=O)c(OC)c1OC,inconclusive: 106%
14,COc1ccc(CCNc2nc(=S)[nH]c3cc(OC)c(OC)cc23)cc1OC,active: 71%
15,COc1ccc(Nc2nc(N)nc(CSC(=S)N3CCCCC3)n2)cc1,inconclusive: 89%
16,N#Cc1c2c(c(=S)n(-c3ccccc3)c1N)CCCC2,inconclusive: 90%
17,CN(C)CCN1C(=O)C(O)=C(C(=O)c2cc3ccccc3o2)C1c1ccccn1 (stereo not drawn),inconclusive: 91%
18,Cc1[nH]c2ccccc2c1CCNC(=O)c1ccc2c(c1[N+](=O)[O-])C(=O)c1ccccc1C2=O,inconclusive: 86%
19,CCCCCC1CCC(C(=O)O)CC1 (stereo not drawn),inconclusive: 109%
20,COc1ccccc1Nc1nccc(N(C)C)c1C#N,inactive: 99%
21,COc1ccc(-c2nnc(SCC(=O)c3cccs3)o2)cc1,active: 58%
22,COc1cccc2c(=O)c3cccc(N)c3[nH]c12,inconclusive: 83%
23,Cc1ccc(Cl)c(OCCCCN(C)Cc2ccccc2)c1,inconclusive: 102%
24,COc1ccc2[nH]c3c(=O)n(Cc4ccc(C(=O)N5CCC(C(N)=O)CC5)cc4)c(=S)[nH]c3c2c1,inconclusive: 88%

row,SMILES,GTP binding activity (% of control)
1,CCOC(=O)Oc1ccc2oc(C)c(C(=O)OCCOC)c2c1,inactive: 100%
2,CC(=O)Nc1ccc(SCC(=O)Nc2sccc2C#N)cc1,inconclusive: 98%
3,O=C(CCc1nc2ccccc2[nH]c1=O)OCC(=O)N1CCc2ccccc21,active: 130% [activator]
4,Cc1nn(-c2ccccc2)c(C)c1/C=C/C(=O)OCC(=O)N(C)C1CCS(=O)(=O)C1 (stereo not drawn),inactive: 93%
5,Cc1ccc(/C=C/c2nc3ccccc3[nH]2)o1,inconclusive: 99%
6,Cc1cc(C)n2nc(SCCOc3ccccc3)nc2n1,active: 78%
7,Cc1cs/c(=N/C(=S)Nc2ccccc2)n1C,inconclusive: 104%
8,CN(c1ccc(OCC(=O)OCC(=O)Nc2cccc([N+](=O)[O-])c2)cc1)S(=O)(=O)c1ccc(F)cc1,inactive: 101%
9,Cc1cc(C)cc(C(=O)N(NC(=O)Nc2ccc(Cl)cc2)C(C)(C)C)c1,inactive: 99%
10,CC(C)c1ccc(C(=O)NN2C(=O)C3CCCCC3C2=O)cc1 (stereo not drawn),inactive: 102%
11,Cc1ccc(N2C(=O)c3ccccc3C2Nc2cccnc2)nc1 (stereo not drawn),active: 121% [activator]
12,CCN1CCCC1CNC(=O)c1ccc(N2CCCC2=O)cc1 (stereo not drawn),inconclusive: 99%
13,N#C/C(=C\C=C\c1ccccc1[N+](=O)[O-])C(=O)NC1CCCCC1,inconclusive: 95%
14,c1ccc(-c2nnc(SCC3CCCCO3)nc2-c2ccccc2)cc1 (stereo not drawn),inconclusive: 95%
15,C=CCNc1nc(=S)[nH]c2cc(OC)c(OC)cc12,inconclusive: 61%
16,O=C(NCCc1ccccc1)C1CCCN(S(=O)(=O)c2cccc3nonc23)C1 (stereo not drawn),inconclusive: 105%
17,Nc1c(S(=O)(=O)c2cccs2)c2nc3ccccc3nc2n1/N=C/c1cccc(O)c1,active: 64%
18,COc1ccc(-n2nnnc2SCC(=O)NCc2cccs2)cc1,inconclusive: 98%
19,O=C(NC1CCCC1)C(c1ccncc1)N(C(=O)c1csnn1)C1CCCC1 (stereo not drawn),inactive: 97%
20,CC(=O)N1CCN(C(=O)CCc2c[nH]c3ccccc23)CC1,inconclusive: 106%
21,Cc1cc(C)n(Cc2cnc(N3CCOCC3)s2)n1,inconclusive: 94%
